Over roughly 110,000 compounds, “z-score” has its median near -0.1; the highest 2% begin near 2. The list shows a part of the results. Calls of active or inactive are those of the source.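 How the source made its calls: active means z-score in the third read window above 3 or below -3; inactive means the rest.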

The assay concerns the target Metabotropic glutamate receptor 8 (Rattus norvegicus) (UniProt P70579). Put plainly: mGluR8 Gi/Go-coupled signaling modulation – cell-based, rat, thallium flux, HTS, primary screen (AID 488969). Conditions: HEK293 rat mGluR8, GIRK (G protein-gated inwardly rectifying potassium channel) thallium flux, FluoZin2; at 10 µM; stronger effect = higher value; submaximal glutamate (EC20) added with thallium.
Sequence of UniProt P70579 (P70579 whole entry, looked up): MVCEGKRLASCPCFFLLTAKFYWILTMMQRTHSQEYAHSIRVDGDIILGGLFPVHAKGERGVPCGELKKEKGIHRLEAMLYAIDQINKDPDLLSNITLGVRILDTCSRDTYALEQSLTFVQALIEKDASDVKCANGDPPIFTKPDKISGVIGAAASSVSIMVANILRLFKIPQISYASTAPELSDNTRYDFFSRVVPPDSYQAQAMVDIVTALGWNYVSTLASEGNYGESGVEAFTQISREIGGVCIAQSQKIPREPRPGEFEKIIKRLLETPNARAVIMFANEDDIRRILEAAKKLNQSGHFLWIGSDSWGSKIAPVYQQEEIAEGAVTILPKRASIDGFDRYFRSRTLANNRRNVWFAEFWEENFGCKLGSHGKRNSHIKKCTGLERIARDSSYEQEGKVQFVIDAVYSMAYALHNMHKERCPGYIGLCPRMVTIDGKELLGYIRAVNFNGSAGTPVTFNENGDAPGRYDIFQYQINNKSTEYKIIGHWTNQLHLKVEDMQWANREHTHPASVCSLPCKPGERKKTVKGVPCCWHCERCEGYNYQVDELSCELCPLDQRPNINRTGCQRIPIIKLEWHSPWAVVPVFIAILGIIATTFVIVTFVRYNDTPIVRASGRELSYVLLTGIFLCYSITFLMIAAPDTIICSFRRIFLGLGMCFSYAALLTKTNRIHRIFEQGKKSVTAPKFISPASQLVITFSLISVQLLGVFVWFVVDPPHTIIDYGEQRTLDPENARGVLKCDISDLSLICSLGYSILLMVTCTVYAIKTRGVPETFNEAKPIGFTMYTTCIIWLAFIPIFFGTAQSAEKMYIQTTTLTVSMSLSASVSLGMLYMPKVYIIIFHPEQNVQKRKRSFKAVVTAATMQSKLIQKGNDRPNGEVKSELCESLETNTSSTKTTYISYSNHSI
`CCN(CC)CC(=O)N1N=C(c2cccs2)CC1c1ccco1` (stereo not given) gave a z-score of -0.0372.

Regarding `COc1ccccc1CC(=O)Nc1ccc(-c2nnc(-c3ccco3)o2)cc1`, the z-score stood at 1.11.

In the case of `Cc1ccc(SCCNC(=O)C(CO)(CO)CO)cc1`, the z-score came out at 0.21.

Regarding `CC(=O)c1cnc2c(C(=O)O)cnn2c1C`, the z-score is -0.379.

As to `Cc1cc(C)c(NC(=O)C2CCCN2CCO)c(C)c1` (stereo not given), the z-score is 0.17.

`O=C(NCc1ccc(F)cc1)C1CCC(=O)N1C1CCCCC1` (stereo not given): the z-score is 0.276.

`O=[N+]([O-])c1ccccc1/C=C/CN1CCCCC1` returned a z-score of -0.0326.

Molecule `CC(C)OCCCNC(=O)CNC(=O)c1cccs1` showed a z-score of 1.05.

`CCOC(=O)c1ccc(-n2nc(C(F)(F)F)c3c(C)cc(=O)oc32)cc1` returned a z-score of 0.309.

In turn, `CCOC(=O)/C(C#N)=C/c1cn(CCOc2ccc(OC)cc2)c2ccccc12` displayed a z-score of -0.109.

As to `CC(NC(=O)C1CCCN(C(=O)N(C)C)C1)c1ccccc1` (stereo not given), the z-score came to 0.19.

Molecule `CCOc1ccc(S(=O)(=O)N2CCN(C)CC2)c(C)c1C` came in with a z-score of 0.117.

In the case of `COc1ccc(NC(=O)CSc2nc(O)c(Cc3ccccc3)c(=O)[nH]2)cc1`, the z-score stood at 0.339.

In turn, `Cc1ccc(S(=O)(=O)N/N=C2/CC(c3ccccc3)Oc3ccccc32)cc1[N+](=O)[O-]` (stereo not given) came in with a z-score of 0.0121.

`COc1ccc(-n2nc(C(=O)Nc3nc4ccc(OC)cc4s3)c3ccccc3c2=O)c(OC)c1` displayed a z-score of -0.0289.

`Cc1cc(C(=O)COc2nncc3ccccc23)c(C)n1C` yielded a z-score of 0.0547.

For the molecule `Cc1ccc(S(=O)(=O)NC(C)CCc2ccccc2)cc1` (stereo not given), the z-score is -0.846.

With `Oc1ccccc1Nc1ncnc2c1oc1ccccc12`, the z-score is -0.536.

`O=C1[C@@H]2[C@H](Cc3ccc(O)cc3)N[C@]3(C(=O)Nc4ccccc43)[C@@H]2C(=O)N1c1ccc(F)cc1` had a z-score of -0.384.

`CCOC(=O)C1CCN(C(=O)COC(=O)COc2ccccc2OC)CC1` registered a z-score of -0.568.

For the molecule `CSc1ccc(C2Nc3ccccc3-c3cc(C)nn32)cc1` (stereo not given), the z-score amounted to 0.909.

As to `Cc1onc(-c2ccccc2Cl)c1C(=O)NCc1cccs1`, the z-score was -0.426.

In the case of `CC1CCCCN1S(=O)(=O)c1ccc(N(C(=O)c2cnccn2)C(C(=O)NC2CCCC2)c2cccs2)cc1` (stereo not given), the z-score is -0.162.

With `COc1ccccc1CNC(=O)COC(=O)c1cnccn1`, the z-score was -0.203.

`CC(C)n1c(O)c(N=Nc2ccc(Cl)nn2)c2ccccc21`: the z-score was active: 3.42.

As for `CCOc1cccc(C(=O)Nc2cccc(-c3nnc(-c4ccccc4)o3)c2)c1`, the z-score is -0.403.

Take `Cc1nc2cc(-c3ccccc3)nn2c(C)c1CCC(=O)N1CCN(c2ccccc2)CC1`: the z-score was -0.274.

`O=C(O)CSc1c(-c2cccs2)[nH]c2ccccc12` showed a z-score of -0.0174.

`CCOc1ccc(OCCOCCn2ccnc2)cc1` gave a z-score of 0.0615.

As for `CN(CC(=O)Nc1ccc(S(N)(=O)=O)cc1)c1ccccc1`, the z-score is 0.147.

`O=C(CC12CC3CC(CC(C3)C1)C2)NCCN1CCOCC1` yielded a z-score of 0.208.

As to `Cc1ccc(S(=O)(=O)N(NC2=NS(=O)(=O)c3ccccc32)C(=O)c2ccccc2)cc1`, the z-score is -0.0119.

The molecule `O=C(NC(=S)N(Cc1ccccc1)c1ccccn1)C1CC1` had a z-score of 0.0087.

The molecule `O=C(c1ccc(=O)oc1)N1CCOCC1` showed a z-score of 0.868.

`O=C(NCc1ccco1)Nc1ccccc1Cl` registered a z-score of -0.581.

`CCN(CC)C(=O)CSc1nc2nc(C)cc(C)c2c(=O)[nH]1` had a z-score of -1.25.

Molecule `c1ccc(COCCN2CCN(CCOCc3ccccc3)CC2)cc1` registered a z-score of 0.0701.

`CC(OC(=O)C(NC(=O)c1ccco1)C(C)C)C(=O)Nc1ncc(Cl)cc1Cl` (stereo not given): the z-score was -0.132.

`Cc1cc(NC(=O)c2cc(Cl)ccc2Cl)no1` displayed a z-score of 0.273.

The molecule `O=C(NC1CCS(=O)(=O)C1)c1c(NC(=O)C2COc3ccccc3O2)sc2c1CCCC2` (stereo not given) returned a z-score of -0.429.

Turning to `CCOC(=O)N1CCN(C(=O)C2CCN(S(=O)(=O)N3CCCC3)CC2)CC1`, the z-score was -0.228.

On to `Cc1ccc(C(=O)NNC(=O)CCC(=O)Nc2cccc(Cl)c2C)cc1`, for which the z-score is -0.265.

For `CC(C)(C)c1ccc(C2C3=C(CCCC3=O)NC3=C2C(=O)c2ccccc23)cc1` (stereo not given), the z-score was -0.071.

`COc1cc(C(=O)/C=C/Nc2ccc(NC(C)=O)cc2)cc(OC)c1OC` gave a z-score of 0.433.

`CCN1CCN(c2cc(C)c3cc(NC(=O)Cc4ccccc4OC)ccc3n2)CC1` came in with a z-score of 0.0706.

In turn, `COC(=O)C1C(=O)CC(C)(O)C(C(=O)OC)C1/C=C/c1ccccc1` (stereo not given) yielded a z-score of -0.0609.

Regarding `Cc1oc(-c2nc3ccccc3n2C)cc1C(=O)c1ccccc1`, the z-score is -1.1.

The molecule `COc1ccc(NC(=O)C2CC(=O)n3ncnc3N2)cc1` (stereo not given) yielded a z-score of -0.061.

With `Cc1nc(C)c(C(=O)Nc2cccc(Cl)c2)o1`, the z-score came out at 0.108.

In the case of `COc1ccc(C(=O)Nc2ccccc2)cc1S(=O)(=O)Nc1cc(C)on1`, the z-score was active: -3.66.

The molecule `C(=N/Nc1nc(-c2ccccc2)cc(-c2ccccc2)n1)/c1cccnc1` came in with a z-score of -0.366.

The molecule `CN(CC(=O)NC1CCCCC1)S(=O)(=O)c1ccc(Br)s1` had a z-score of -0.609.

Molecule `CC(C)[C@H](NC(=O)c1ccccc1)C(=O)OCC(=O)NCCc1ccc(F)cc1` gave a z-score of -0.349.

Take `CCc1ccccc1NC(=O)CSc1nc2ccccc2n1CC(=O)N1CCCC1`: the z-score is -0.11.

Regarding `CCn1c(SCC(=O)NCCOc2ccccc2)nc2ccccc2c1=O`, the z-score was -1.46.

`Cc1ccc2cc(C#N)c(SCC(=O)N3CCCc4ccccc43)nc2c1C` came in with a z-score of -0.174.

In the case of `Cc1ccc2c(C)c(C(=O)Nc3c(C)n(C)n(-c4ccccc4)c3=O)oc2c1C`, the z-score was -0.159.

`CCCn1nnnc1NCc1cccn1C` showed a z-score of 1.98.

The molecule `O=C(O)C1CCCN(S(=O)(=O)c2ccc(Cl)s2)C1` (stereo not given) yielded a z-score of -0.387.

Turning to `Cc1ccc(S(=O)(=O)c2nc(Nc3ccccc3C#N)sc2Cl)cc1`, the z-score was -0.235.

Molecule `COc1ccc(C2Nc3ccccc3C(=O)N2Cc2ccccc2)cc1COc1ccccn1` (stereo not given) showed a z-score of -0.3.

`CCOC(=O)c1sc(NC(=O)CSc2nnc(C(C)C)n2C)nc1C`: the z-score is -0.312.

For the molecule `COC(=O)c1ccc(-c2ncc(-c3cccc4ccccc34)o2)cc1`, the z-score was -0.151.

In turn, `COc1ccc(Cc2nnc(N/N=C/c3ccccc3O)[nH]c2=O)cc1OC` came in with a z-score of -0.245.

In the case of `CN1C(=O)C2(C(C#N)=C(N)N(c3ccc(Cl)cc3)C3=C2C(=O)CC(C)(C)C3)c2ccccc21` (stereo not given), the z-score is -0.197.

Molecule `O=C(c1cc2ccccn2n1)N1CCN(Cc2ccccc2)CC1` yielded a z-score of -0.124.

As for `CCN=C1SC(CC(=O)NCCc2ccc(OC)c(OC)c2)C(=O)N1CC` (stereo not given), the z-score was 0.523.

`CC1(C)Cc2ccccc2-c2nnc(SCC(=O)N3CCc4ccccc43)n21` returned a z-score of -1.17.

With `O=C(CN1C(=O)c2ccccc2S1(=O)=O)NCc1ccccc1Cl`, the z-score is -0.294.

With `Cc1noc(C)c1C(=O)NCc1ccccc1`, the z-score was -0.239.

`O=C(CSC1CCCCC1)Nc1ccccc1Br` returned a z-score of 0.0884.

For `COc1ccc(-c2nc(CS(=O)CC(=O)NCCC3=CCCCC3)c(C)o2)cc1` (stereo not given), the z-score is -0.366.

`CCOC(=O)NC(=O)CSc1nnc(C)s1` displayed a z-score of -0.499.

`CCOC(=O)c1cnc2c(OC)cccc2c1Nc1ccc2c(c1)OCCO2`: the z-score was -0.685.

For the molecule `O=C(Nc1ccc(F)cc1)c1ccccc1F`, the z-score is -0.129.

For the molecule `CC(C)(C)c1cc(NC(=O)COc2ccc(Br)cc2)n(-c2ccccc2)n1`, the z-score was -0.0938.

As for `Cc1cccc(C)c1OCC(=O)NCc1nnc(SCC(=O)NC2CCCCC2C)n1C` (stereo not given), the z-score was -0.0497.

For `COc1ccc(-c2c(S(=O)(=O)c3ccccc3)cnn2-c2ccccc2)cc1`, the z-score is active: -3.36.

In turn, `COc1ccccc1N(CC(=O)Nc1cccnc1)S(=O)(=O)c1ccccc1` showed a z-score of 0.142.

Turning to `Cc1nn(CC(N)=O)c(=O)c2ccccc12`, the z-score is 0.232.

In the case of `Cc1ccc(NC(=S)NNc2ncc(C(F)(F)F)cc2Cl)cc1`, the z-score is 2.19.

The molecule `O=C(CNC(=O)c1ccc(Br)cc1)NCCc1nc2ccccc2[nH]1` registered a z-score of -0.114.

In the case of `CCOC(=O)c1ccc(NC(=O)CCOc2ccc(OC)cc2)cc1`, the z-score was -0.441.

The molecule `O=C(c1c(Cl)nc2sccn12)N(C(=O)c1c(Cl)nc2sccn12)c1ccc(Cl)cn1` yielded a z-score of -0.871.

The molecule `CN1CCN(NC(=O)c2cc([N+](=O)[O-])cc([N+](=O)[O-])c2)CC1` showed a z-score of -0.00308.

Turning to `Cc1cccc(N(C(=O)CNC(=O)c2ccco2)C(C(=O)NC2CCCC2)c2cccnc2)c1` (stereo not given), the z-score was -0.121.

`Cc1cc(C)c2nc(NC(=O)c3ccc(OCC4CCCO4)cc3)sc2c1` (stereo not given) yielded a z-score of -0.201.

`CC(C(=O)N1CCc2ccccc21)N1CCN(c2ccccn2)CC1` (stereo not given) came in with a z-score of -0.041.

Consider `O=C1NC(=Nc2ccccc2)c2ccc([N+](=O)[O-])cc21`, for which the z-score is -0.111.

Turning to `COc1ccccc1N1C(=O)CC(Sc2ncccc2C(=O)O)C1=O` (stereo not given), the z-score is -0.0538.

For `CCOC(=O)c1c(C)sc2c1N(C(=O)CN(CC)CC)c1cc(Cl)ccc1S2`, the z-score worked out at 1.49.

Take `CN1/C(=C\C=[N+](C)c2ccccc2)C(C)(C)c2ccccc21`: the z-score amounted to 0.143.

Turning to `Cc1ccc(-c2cc3nc(-c4ccccc4)cc(N4CCC5(CC4)OCCO5)n3n2)cc1`, the z-score was -0.0303.

With `COc1ccccc1N/C(N)=N/c1nc(CSc2nc3ccccc3s2)cc(=O)[nH]1`, the z-score is -0.65.

As for `COC(=O)c1cnn2c(C(F)(F)F)cc(-c3ccco3)nc12`, the z-score was determined as 0.694.

Turning to `COCCNC(=O)c1cc(Br)ccc1Cl`, the z-score was determined as 0.789.

`Cc1[nH]c2ccccc2c1NC(=O)CN1CCN(Cc2ccc3c(c2)OCO3)CC1` had a z-score of -0.288.

In the case of `N#Cc1c(NC(=O)CSc2nnc(-c3ccccc3O)n2-c2ccccc2)sc2c1CCCC2`, the z-score was -0.575.

Turning to `Cc1ccccc1C(=NC(=O)c1ccccc1)c1ccccc1`, the z-score is -0.0331.

`CCOc1ccc(-c2nnc(NC(=O)c3ccc(OCC(C)C)c(OC)c3)o2)cc1`: the z-score is active: 10.4.

In the case of `Cc1ccccc1NC(=O)C1Cc2ccccc2CN1C(=O)OCc1ccccc1` (stereo not given), the z-score was -0.408.

Turning to `O=Nc1c(O)n(Cc2ccc(Cl)c(Cl)c2)c2ccccc12`, the z-score was -0.0596.

Turning to `Fc1cccc(-c2cc3nc4c(c(NCc5ccco5)n3n2)CCCC4)c1`, the z-score was 0.132.

In turn, `CCOC(=O)c1nnc(-c2ccc(C)cc2)nc1Oc1ccccc1Cl` displayed a z-score of -0.391.

Take `COc1ccccc1CNC(=O)C(=O)NCC1CCCO1` (stereo not given): the z-score was -0.0304.

Take `CCOc1cc(S(=O)(=O)N2CCC(C(N)=O)CC2)ccc1F`: the z-score is -0.195.

`CC12CCC(C(=O)NCc3ccccn3)(OC1=O)C2(C)C` (stereo not given) yielded a z-score of -0.0765.

Regarding `Cc1cc(C(=O)N/N=C2\CC(=O)CC(C)(C)C2)n[nH]1`, the z-score worked out at 0.0606.

Consider `N#Cc1c(SCC(=O)O)nc(N2CCCCC2)c2c1CCCC2`, for which the z-score was -2.52.

`CCOC(=O)C1C(=O)OC(C)(C)C1C(C)C(=O)c1ccccc1` (stereo not given) returned a z-score of -0.205.

(Values after PubChem BioAssay AID488969 (Vanderbilt High Throughput Screening Facility, 2010).)
